# From PubChem BioAssay AID488969 (Vanderbilt High Throughput Screening Facility, 2010)
# Over roughly 110,000 compounds, “z-score” has its median near -0.1; the highest 2% begin near 2. Some of the results follow. Activity calls are given as the source filed them.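 How the source made its calls: active means z-score in the third read window above 3 or below -3; inactive means the rest.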
# Molecular target: Metabotropic glutamate receptor 8 (Rattus norvegicus) (UniProt P70579)
# Assay: mGluR8 Gi/Go-coupled signaling modulation – cell-based, rat, thallium flux, HTS, primary screen (AID 488969)
# Settings: HEK293 rat mGluR8, GIRK (G protein-gated inwardly rectifying potassium channel) thallium flux, FluoZin2; at 10 µM; stronger effect = higher value; submaximal glutamate (EC20) added with thallium
# Sequence of UniProt P70579 (P70579 whole entry, looked up): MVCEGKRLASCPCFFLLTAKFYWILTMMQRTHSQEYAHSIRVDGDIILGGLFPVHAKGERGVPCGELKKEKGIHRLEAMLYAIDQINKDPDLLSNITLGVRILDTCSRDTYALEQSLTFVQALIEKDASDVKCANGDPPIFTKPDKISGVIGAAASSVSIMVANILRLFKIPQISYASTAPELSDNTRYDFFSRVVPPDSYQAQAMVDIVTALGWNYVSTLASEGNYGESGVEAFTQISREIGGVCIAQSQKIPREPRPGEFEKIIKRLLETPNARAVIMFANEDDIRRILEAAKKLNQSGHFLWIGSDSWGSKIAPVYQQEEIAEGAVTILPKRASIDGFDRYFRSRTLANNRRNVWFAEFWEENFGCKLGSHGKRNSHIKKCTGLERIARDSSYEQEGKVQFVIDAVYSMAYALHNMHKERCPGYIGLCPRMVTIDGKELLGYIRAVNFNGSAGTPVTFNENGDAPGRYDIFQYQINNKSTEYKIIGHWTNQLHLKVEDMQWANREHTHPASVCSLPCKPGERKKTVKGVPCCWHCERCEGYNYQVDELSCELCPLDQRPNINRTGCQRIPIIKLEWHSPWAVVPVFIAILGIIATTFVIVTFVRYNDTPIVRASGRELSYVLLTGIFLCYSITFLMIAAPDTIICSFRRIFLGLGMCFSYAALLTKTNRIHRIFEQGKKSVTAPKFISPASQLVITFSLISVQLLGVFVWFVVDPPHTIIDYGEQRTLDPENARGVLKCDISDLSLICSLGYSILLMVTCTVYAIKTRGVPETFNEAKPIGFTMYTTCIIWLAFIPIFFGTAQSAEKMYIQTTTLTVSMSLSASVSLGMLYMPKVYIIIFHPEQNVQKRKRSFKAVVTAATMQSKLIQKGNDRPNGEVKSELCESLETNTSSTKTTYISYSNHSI
row,Compound,z-score
1,Nn1c(Cc2cccc3ccccc23)nnc1SC1CCOC1=O (stereo not given),0.259
2,CCOC(=O)c1ccc(NC(=O)CCc2nc(-c3cccc(C)c3)no2)cc1,0.0774
3,O=C(Cn1ncc2c1-c1ccccc1OC2)Nc1cccc(Cl)c1,1.41
4,C=CCn1c(Cc2cccs2)nnc1SCC(=O)Nc1ccc(OC)cc1,0.00163
5,Cc1onc(-c2c(F)cccc2Cl)c1C(=O)NC1CCSC1=O (stereo not given),-0.0578
6,COc1ccc(OCC(=O)N/N=C(/C)Cc2ccccc2)cc1,-0.229
7,Cc1cccc(C)c1-n1nnnc1S(=O)(=O)Cc1ccccc1Cl,-0.298
8,COC(=O)c1ccc(NC(=O)c2cc3sccc3n2C)cc1,-1.08
9,O=[N+]([O-])c1ccc(O)c(-c2nc(-c3ccccc3)c(-c3cccs3)[nH]2)c1,-0.0941
10,C=CCNC(=O)c1ccc(C)c(Br)c1,-0.134
11,O=C(NC1CCCC1)C(c1cccs1)N(C(=O)c1ccno1)c1ccccc1 (stereo not given),0.711
12,CC1(O)c2ccccc2C(=O)N1CCc1ccccc1F (stereo not given),-0.1
13,COc1ccc(-c2cc(C(F)(F)F)nc(SCC(N)=O)n2)cc1,0.362
14,Cc1cc(SCC#N)n2nc(C)c(-c3ccc(Cl)cc3)c2n1,0.479
15,CCOc1ccc(N2Cc3ncccc3C2=O)cc1,-0.0683
16,CCCC(C(=O)NCc1ccco1)N(C(=O)CNS(=O)(=O)c1ccc(Cl)cc1)C1CCCC1 (stereo not given),0.651
17,O=C(Oc1ccc(Cl)cc1)N1CCCCC1,0.187
18,Cc1cccc(NC(=S)NNC(=O)CCn2nc(C)c([N+](=O)[O-])c2C)c1,0.0146
19,Cc1ccc(C2N(c3cccc(Cl)c3)C(=O)C3CCCN32)o1 (stereo not given),-0.548
20,COc1ccc(F)cc1S(=O)(=O)Nc1ccc2c(c1)OCO2,-0.335
21,COc1cccc(-c2csc(N3CCN(C(=S)Nc4ccccc4Cl)CC3)n2)c1,-0.399
22,Fc1ccc(CSc2nc3ncc(Br)cc3[nH]2)cc1,-1.27
23,COc1ccc(CNC(=O)Oc2ccccc2)cc1Cl,-0.525
24,COc1ccc(C2C(C(=O)OC(C)C)=C(C)N=c3s/c(=C\c4cccs4)c(=O)n32)cc1 (stereo not given),1.04

row,Compound,z-score
1,O=C(NCCc1c[nH]c2ccccc12)c1cc(S(=O)(=O)N2CCCCC2)ccc1N1CCOCC1,-0.77
2,CCC(=O)Nc1nc2ccccc2n1CCN(CC)CC,-0.0953
3,CCOCc1nnc(NC(=O)c2cccs2)s1,0.125
4,C=C(C)c1cccc(C(C)(C)NC(=O)N2CCC(C)CC2)c1,-0.352
5,CC1CCCC(C)N1C(=O)COC(=O)C(Cc1ccccc1)NC(=O)c1cccs1 (stereo not given),-0.188
6,O=C(c1ccc(-c2ccccc2)cc1)N1CCN(c2ncccn2)CC1,active: 3.97
7,CC(=O)c1ccc(N2Cc3ccccc3C2=NC(=O)c2cccs2)cc1,-0.148
8,CCOC(=O)C1CCN(CC(=O)Nc2c(C(=O)OC)[nH]c3ccc(Cl)cc23)CC1,-1.02
9,COc1ccc(-c2csc(Cc3nnc(N4CCOCC4)n3-c3ccccc3)n2)cc1OC,-0.0135
10,Cc1sc2nc(SCC(=O)C(C)(C)C)n(Cc3ccco3)c(=O)c2c1C,-0.377
11,CCc1c(C)nc(Nc2nc(C)c3ccc(OC)cc3n2)[nH]c1=O,-0.8
12,CCCCCC(=O)Nc1nc(C)c(-c2csc(Nc3ccccc3OCC)n2)s1,-0.324
13,CCN1C(=O)c2cccc3c(S(=O)(=O)Nc4c(C)n(C)n(-c5ccccc5)c4=O)ccc1c23,-1.35
14,CC(C)C(=O)N1CCN(c2ccc(NC(=O)c3ccc(Br)o3)cc2)CC1,-0.133
15,C=C(Cl)COc1ccc2c(C)cc(=O)oc2c1,0.615
16,COc1ccc(-n2c(Cc3cc(=O)[nH]c(=O)[nH]3)nnc2SCc2ccccc2)cc1,0.0314
17,O=C(NC1CCCCCC1)c1cc(S(=O)(=O)N2CCC3(CC2)OCCO3)ccc1F,0.381
18,c1ccc(Oc2ncnc3oc(-c4ccccc4)cc23)cc1,0.0157
19,O=C(OCc1ccc2c(c1)OCO2)c1ccc(S(=O)(=O)N2CCCC2)cc1,0.14
20,COC(=O)Cn1cc(C(=O)OC)cc(Br)c1=O,-0.00723
21,Cc1ccc(S(=O)(=O)/N=C(/Nc2nc(C)cc(C)n2)N2CCOCC2)cc1,0.338
22,CCOC(=O)c1c(NC(=O)C(C)NCc2ccco2)sc2c1CCC(C)C2 (stereo not given),-0.244
23,CC(=O)Nc1ccc(S(=O)(=O)N2CCN(C)CC2)cc1,-0.00534
24,O=C(Nc1ccc(N2CCN(C(=O)c3ccco3)CC2)c(Cl)c1)c1cccs1,-0.455

row,Compound,z-score
1,CSc1nc2nc3c(c(=O)n2[nH]1)CCC3,-0.258
2,O=C(NC1CCCCC1)NC1CC2CCC(C1)N2C(=S)NCc1ccco1 (stereo not given),-0.0389
3,CCN1CCN(S(=O)(=O)c2ccc(S(=O)(=O)N(CC)Cc3ccccc3)cc2)CC1,-0.171
4,C=CC[N+](C)(C)CC(=O)OCc1ccccc1,-0.186
5,CCn1c(C)c(C(C)=O)c(N2CCN(c3ccccn3)CC2)nc1=S,0.0199
6,O=C(COC(=O)CCOc1ccccc1)Nc1ccc(Cl)cn1,-0.197
7,CCOC(=O)c1c(C)[nH]c(N=Nc2cccc(C)c2)c1C,0.255
8,CCOC(=O)Cc1c(C)c2c(O)cc(O)cc2oc1=O,-0.401
9,CCOC(=O)C1=C(CSc2nc3c(cc2C#N)CN(C)CC3)OC(N)=C(C#N)C1c1ccccc1 (stereo not given),0.0291
10,CS(=O)(=O)N(CC(N)=O)c1cccc(Br)c1,0.22
11,Cc1csc(NC(=O)C(CC(C)C)NS(=O)(=O)c2ccc3c(c2)oc(=O)n3C)n1 (stereo not given),0.188
12,O=C(c1cnn2c(C(F)F)cc(-c3ccccc3)nc12)N1CCSCC1,-0.361
13,CCCCCn1c(CN2CCN(c3cccc(Cl)c3)CC2)nc2c1c(=O)n(C)c(=O)n2C,-0.0719
14,COc1cccc(/C=N\NC(=O)C2=NNC(=O)C2C)c1O (stereo not given),-0.139
15,Cc1ccc(-c2cc(C(=O)NCC3CCCO3)c3ccccc3n2)o1 (stereo not given),-0.185
16,Cc1cc(NC(=O)CSc2nc3c(c(-c4cccnc4)c2C#N)CCC3)no1,0.0942
17,CCCCOc1ccc(C(=O)OC2CC(C)N(C)CC2C)cc1 (stereo not given),active: 3.48
18,C=C(C)CNC(=S)NNC(=O)c1ccc(Br)cc1,1.52
19,CC(C)(C)c1ccc(S(=O)(=O)Nc2ccc(Cc3ccncc3)cc2)cc1,0.0193
20,Cc1cccc(-n2cccc2)c1C#N,-0.306
21,O=C(O)c1ccc(COc2ccc(/C=N/NC(=O)c3cccs3)cc2)cc1,-0.656
22,COc1ccc(NC(=O)CSc2nc(C)cc(C(F)(F)F)n2)cc1,0.108
